# Assay results from PubChem BioAssay AID1963576 (National Center for Advancing Translational Sciences (NCATS), 2024).
# Screen size: about 46,000 compounds; about 60 (0.1%) were called active. Another 3% or so got no clear call; they are omitted. Calls come from the whole dose curve; as a rule, active = well fitted inhibition curve with a large enough effect; inconclusive = small, poorly fitted or top-dose-only effect; inactive = no such curve, though single readings can be large or run the other way. Some of the results follow.
# Test: Primary qHTS assay for Inhibitors of ovarian cancer metastasis using an organotypic tumor microenvironment (TME) model.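 For activity change, negative = inhibition: plate controls were DMSO wells for no effect and tomatine positive control wells for full effect.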 Note: nearly all actives have a fitted effect of over 65% in size.
# Settings: SKOV3ip1-GFP adhesion/invasion on 3D omental model, fluorescence; series mostly up to 45.8 µM; activity change, negative = inhibition: at the top concentration
# Method in brief: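 qHTS, 4-pt dose (0.36-46 umol/L); SKOV3ip1-GFP, 1,200 cells/well, no FBS; primary omental fibroblast/mesothelial co-culture 48 h pre-grown; 2 h RT + 16 h 37 C; PBS wash, 4% PFA; GFP count 488/509 nm.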
SMILES,"activity change, negative = inhibition",outcome
Cc1cc(N2CCC(C(=O)Nc3ccc(Cl)cc3)CC2)n2nc(C)c(-c3ccc(Cl)cc3)c2n1,inactive: -7.69%,
CCOC(=O)c1noc2nc(C)n(CC(=O)Nc3ccc(OC)c(Cl)c3)c(=O)c12,,inactive
O=C(O)CSc1nnc(-c2ccc(O)cc2)o1,,inactive
CCOC(=O)CSc1nnc2n(-c3ccccc3)c(=O)c3c4c(sc3n12)COC(C(C)C)C4 (centres undefined),,inactive
Cc1ccc(Cc2c(C)nc3c(-c4ccccc4)c(C)[nH]n3c2=O)cc1,inactive: 27%,
Cc1cc2c(cc3c(=O)n(CC(=O)NCc4ccccc4Br)ncn32)s1,,inactive
CCc1c(C)nc2nncn2c1NCc1ccc(OC)cc1,,inactive
O=C(CSc1nc(=O)[nH]c2c1CCC2)NCc1ccc(Cl)cc1,inactive: -9.45%,
CC(C)NC(=O)CSc1nc2ccccc2c(=O)n1Cc1ccc(C(=O)NC(C)C)cc1,inactive: -7.53%,
O=C(CCS(=O)(=O)c1cccc2nonc12)Nc1cccc(F)c1,inactive: -6.48%,
CC(CNC(=O)c1ccc2c(c1)nc1n2CCOC1)c1ccccc1 (centres undefined),inactive: 0.671%,
Cc1cccc(C)c1OCCn1c(C2CC(=O)N(Cc3ccc(F)cc3)C2)nc2ccccc21 (centres undefined),inactive: 0.373%,
Cc1ccc(Cl)cc1NC(=O)Cn1cc2c(n1)CCCCC2,inactive: 17.6%,
CCSc1ncc(Cl)c(C(=O)Nc2ccc(S(=O)(=O)Nc3nccc(C)n3)cc2)n1,inactive: 5.02%,
COC(=O)c1ccc(C(=O)Nc2ccc(-c3nc4cc(NC(=O)c5ccc(C(=O)OC)cc5)ccc4o3)cc2)cc1,inactive: -0.841%,
COc1ccc(CN(Cc2ccco2)c2cnc(S(C)(=O)=O)nc2C(=O)Nc2ccc(C)c(C)c2)cc1,inactive: -2.99%,
Cc1cccc(CSc2nc3cccnc3n2Cc2ccc(C(=O)NCc3ccco3)cc2)c1,,inactive
Cc1noc2ncnc(N3CCN(c4ccccc4F)CC3)c12,inactive: -4.42%,
COC(=O)CC1Oc2ccc(C)cc2-n2cc(-c3ccc(F)cc3)nc21 (centres undefined),,inactive
O=C(O)c1cccc(-c2noc(-c3ccccc3F)n2)c1,inactive: 8.63%,
COC(=O)c1ccc(NC(=O)c2cccc3c2C(=O)N(C2CCCCC2)C3)cc1,,inactive
O=C(CCC1N=C2c3ccccc3N=C(SCc3ccccc3Cl)N2C1=O)N1CCN(c2ccccc2)CC1 (centres undefined),inactive: -4.04%,
COc1ccc(-c2oc3ncn4nc(-c5ccccc5Cl)nc4c3c2-c2ccc(OC)cc2)cc1,,inactive
Cc1cccc(OCCSc2nc3ccc(NC(=O)COc4ccccc4F)cc3s2)c1,inactive: -7.3%,

SMILES,"activity change, negative = inhibition",outcome
Cc1cc(Cl)ccc1NC(=O)CCn1nc(C)c2c(C)n(-c3ccccc3)nc2c1=O,inactive: 0.806%,
COc1ccc(Cn2ccc3nc(C)c(C(=O)NCc4ccc(C)cc4)cc3c2=O)cc1,inactive: -2.13%,
CC1(C)CC(=O)c2cc(-c3nc(-c4ccc(Cl)cc4)cs3)c(=O)n(-c3ccc(F)cc3)c2C1,inactive: -25.3%,
Cc1ccc(C)c(N2CCN(C(=O)CCn3c(=O)[nH]c4ccccc4c3=O)CC2)c1,inactive: -0.902%,
Cc1ccc(C)c(NC(=O)CSc2ncc3c(n2)-c2cc(Cl)ccc2N(Cc2ccccc2F)S3(=O)=O)c1,,inactive
CCCSCCCNC(=O)c1cc2n(n1)CCCN(Cc1ccc(C)cc1)C2=O,inactive: 3.16%,
CCOc1ccc(CCNC(=O)CCN2N=C(c3ccc(OC)cc3)CCC2=O)cc1OCC,inactive: -8.47%,
CC1COC2(CCN(c3nc(=O)c4cc(C(F)(F)F)cc([N+](=O)[O-])c4s3)CC2)O1 (centres undefined),inactive: -4.63%,
CCCCNc1nc2c(c(=O)n(Cc3ccc(Cl)c(Cl)c3)c(=O)n2C)n1C,,inactive
CC(C)(C)c1ccc(C(=O)NC(Cc2c[nH]c3ccccc23)C(=O)OCC(=O)c2ccc(Cl)cc2)cc1 (centres undefined),inactive: -6.37%,
O=C(NCCc1csc2nc(-c3cccc(F)c3)nn12)c1ccc(Br)o1,inactive: 1.79%,
CCOc1ccc(NC(=O)Cn2cc(S(=O)(=O)N3CCN(c4ccccc4F)CC3)c3ccccc3c2=O)cc1,,inactive
COc1ccc(N(CC(=O)N2CCN(c3ccc(F)cc3)CC2)S(=O)(=O)c2c(C)n[nH]c2C)cc1,,inactive
COc1ccc(-c2noc(-c3ccc(N4CCC(C)CC4)c([N+](=O)[O-])c3)n2)cc1OC,,inactive
Cc1ccc(CNC(=O)CSc2nc3n[nH]c(C)c3c(=N)n2-c2cccc(C)c2)cc1,inactive: 5.49%,
CCOC(=O)c1scc(-c2ccccc2)c1S(=O)(=O)N1CCN(c2ccccc2OC)CC1,inactive: -10.4%,
COc1ccc(NC(=O)c2oc3ccc(S(=O)(=O)N(C)C4CCCCC4)cc3c2C)cc1,inactive: -0.955%,
CCc1ccc(NC(=O)CCNS(=O)(=O)c2ccc3c(c2)CCCC(=O)N3)cc1,inactive: 0.582%,
Cc1ccc(CNC(=O)c2cccc(-n3cnc4cccnc43)c2)cc1,inactive: 16%,
CCOC(=O)c1cc(-c2ccc(C)cc2)n(CC(=O)NC2CCCCCC2)c1C,,inactive
CCSc1nnnn1-c1cccc(C(=O)O)c1,inactive: 4.91%,
Cc1cc2nc(-c3cccc(NC(=O)CSc4ccc(Cl)cc4)c3)oc2cc1C,inactive: -24.2%,
COc1cccc(NS(=O)(=O)c2ccc3c(c2)CCCN3C(=O)C2CCC2)c1,inactive: 1.19%,
COc1ccc(-c2nn(-c3cccc([N+](=O)[O-])c3)c3c2cnc2cc4c(cc23)OCO4)cc1,inactive: -13.2%,

SMILES,"activity change, negative = inhibition",outcome
CC(C)c1ccc(Nc2nc3c(S(=O)(=O)c4ccc(Br)cc4)nnn3c3ccsc23)cc1,inactive: 4.97%,
CCCN(C(=O)c1cc2c(s1)-c1c(C)cccc1OC2)c1ccc(OCC)cc1,inactive: 0.162%,
Cc1ccc(NC(=O)C(Cc2ccccc2)n2cccc2)cc1C (centres undefined),inactive: -15.3%,
Cc1ccc(-c2nc3ccccn3c2Nc2ccc3c(c2)OCO3)o1,inactive: -20.9%,
O=C(/C=C/c1cn(CC(O)CN2CCCCCC2)c2ccccc12)c1ccc(Br)cc1 (centres undefined),inactive: -4.66%,
COC(=O)c1ccccc1NC(=O)c1cc2c(-c3ccc(OC)c(OC)c3)nn(C)c2s1,inactive: -0.818%,
C=CCC(CC=C)(CNC(=O)C(=O)Nc1ccc(C(=O)OCC)cc1)c1ccccc1,inactive: -5.68%,
COc1ccccc1Nc1nn2c(=O)c3ccc(C(=O)NC(C)c4ccccc4)cc3nc2s1 (centres undefined),inactive: 5.85%,
Cc1ccc(NC(=O)Cn2cc(S(=O)(=O)c3ccccc3)c(=O)c3cc4c(cc32)OCO4)cc1,inactive: 12.8%,
Cc1cccc(C(=O)Nc2ccc(OCc3cc(=O)n4c5c(sc4n3)CCCC5)cc2)c1,,inactive
CCC(=O)Nc1sc2c(c1C(=O)Nc1cccc(C)c1)CCCC2,,inactive
COc1ccc(C2c3[nH]c4ccc(OC)cc4c3CCN2C(=O)Nc2ccccc2)cc1 (centres undefined),inactive: -5.28%,
O=C(Nc1c(Cl)cccc1Cl)c1cc(-c2cccc(O)c2)on1,,inactive
Cc1c(NC(=O)Nc2ccc(C#N)cc2)c(=O)n(-c2ccccc2)n1C,inactive: -27.6%,
Cc1cccc(-c2c3c(=O)n(C)c(=O)n(C)c3c3cnc4ccccc4n23)c1,inactive: -0.327%,
CCN(CC)c1ccc2cc(-c3nc(-c4cc(OC)c(OC)c(OC)c4)no3)c(=O)oc2c1,inactive: -8.55%,
Cc1cc(C)c2c(n1)SCCN2C(=O)Nc1ccc(C(=O)Nc2ccc(C(C)C)cc2)cc1,inactive: -5.44%,
Cc1cc(C)c(NC(=O)Cn2nnc(-c3nc(-c4ccccc4)no3)c2N)c(C)c1,inactive: 0.144%,
CCN(CCN(C)C)C(=O)C1CCN(S(=O)(=O)c2c(C)noc2/C=C/c2ccccc2F)CC1,inactive: -1.72%,
COC(=O)Cc1c(C)c2cc3c(c(C)c2oc1=O)OCN(CCc1ccc(OC)cc1)C3,,inactive
CC(=O)N1CCCc2cc(S(=O)(=O)N3CCN(c4cccc(C(F)(F)F)c4)CC3)ccc21,inactive: -11%,
COc1ccccc1NC(=O)C1CCN(c2cnccn2)CC1,inactive: 8.2%,
CSc1ncc(C(=O)Nc2cc(Cl)ccc2C)c(-c2ccccc2)n1,inactive: -1.98%,
Cc1ccc(-c2cc(C(F)(F)F)nn2-c2ccc(S(N)(=O)=O)cc2)cc1,inactive: -1.2%,

SMILES,"activity change, negative = inhibition",outcome
Cc1cc(C)cc(-n2ccn(CC(=O)Nc3ccccc3F)c(=O)c2=O)c1,inactive: -10.8%,
CCOc1ccc(-n2nc(CO)c(C(=O)NCc3cccc(OC)c3)n2)cc1,inactive: -4.71%,
CC(=O)c1ccc(NC(=O)c2nc3nc(C)cc(C(F)F)n3n2)cc1,inactive: -5.65%,
O=C(CCC1N=C2c3ccccc3N=C(SCc3ccc(F)cc3)N2C1=O)NC1CCCCC1 (centres undefined),inactive: 6.28%,
COc1cc2cc(CNc3ccccc3)c(=O)n(CC(=O)Nc3cc(C)cc(C)c3)c2cc1OC,,inactive
COC(=O)c1ccccc1NC(=O)Cn1c(=O)n(CCCC(=O)NCc2ccccc2OC)c(=O)c2ccccc21,inactive: 43.2%,
COc1ccc(-c2cc(=O)oc3c4c(ccc23)OCN(Cc2cccc(OC)c2)C4)cc1,inactive: 2.87%,
Cc1ccc(C)c(NC(=O)C(c2ccccc2)N2Cc3ccccc3C2=O)c1 (centres undefined),inactive: -0.306%,
Cc1ccc2oc(-c3ccc(Cl)c(NC(=O)c4ccc(OC(C)C)cc4)c3)nc2c1,inactive: -3.71%,
Cc1cc(C)cc(NC(=O)C2CCN(S(=O)(=O)c3ccc4c(c3)oc(=O)n4C)CC2)c1,inactive: 9.23%,
CCCCc1nc2ccccc2n1CC(=O)N(COCC)c1c(C)cccc1CC,,inactive
Cc1ccccc1-c1noc(-c2cc(-c3ccc(F)cc3)n[nH]2)n1,inactive: -15.5%,
Cc1ccc(NC(=O)C2CCC(CNS(=O)(=O)c3ccc4c(c3)CCCC(=O)N4)CC2)c(C)c1 (centres undefined),inactive: 0.82%,
Cc1cn2c(=O)cc(COc3ccccc3NC(=O)c3ccc(Cl)cc3)nc2s1,inactive: 4%,
CCOC(=O)c1ccc(NC(=O)CSc2nc3c([nH]c4ccccc43)c(=O)n2C)cc1,inactive: -18.3%,
COc1cc(NC(=O)c2ccc(-n3cnc4cccnc43)cc2)cc(OC)c1,,inactive
CC(C)c1ccc(Nc2c(-c3ccco3)nc3ccccn23)cc1,inactive: -1.71%,
COc1ccc(C(=O)Nc2nc3ccc(S(=O)(=O)N4CCCC4)cc3s2)cc1,inactive: 15.7%,
COc1ccccc1-c1nnc(C2CCN(S(=O)(=O)c3ccccc3)CC2)o1,inactive: 4.61%,
O=C(Nc1ccc(NC(=O)c2ccc(Br)cc2)c(Cl)c1)c1ccc(Br)cc1,inactive: 0.504%,
Cn1cc(S(=O)(=O)N2CCCC2)cc1C(=O)Nc1ccc(C(F)(F)F)cc1,inactive: -12%,
COc1ccc(CNc2oc(COc3cccc(C)c3)nc2C#N)cc1,inactive: -7.07%,
